Five molecules from paper PMC4807287 can be followed below.

By UniProt entry, the sequences of proteins in these tests, tags left out.
UniProt Q9Y5S8: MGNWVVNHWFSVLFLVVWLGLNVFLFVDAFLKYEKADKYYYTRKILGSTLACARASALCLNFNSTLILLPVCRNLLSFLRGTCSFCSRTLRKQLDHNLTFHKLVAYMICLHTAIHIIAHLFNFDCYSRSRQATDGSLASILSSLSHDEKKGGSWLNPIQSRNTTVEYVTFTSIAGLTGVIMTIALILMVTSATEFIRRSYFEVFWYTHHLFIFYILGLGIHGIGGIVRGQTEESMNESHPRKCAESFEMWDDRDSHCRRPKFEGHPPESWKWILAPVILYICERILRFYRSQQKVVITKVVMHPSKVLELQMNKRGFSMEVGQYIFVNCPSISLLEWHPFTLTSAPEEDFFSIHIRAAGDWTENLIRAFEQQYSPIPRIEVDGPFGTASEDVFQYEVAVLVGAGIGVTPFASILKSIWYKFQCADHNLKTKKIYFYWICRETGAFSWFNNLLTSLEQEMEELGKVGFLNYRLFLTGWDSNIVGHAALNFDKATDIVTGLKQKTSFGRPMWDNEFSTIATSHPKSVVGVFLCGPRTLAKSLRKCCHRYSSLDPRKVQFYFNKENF

Results are given in words; binding and its absence hold for the method and conditions named. Binding seen in cells or lysates may run through a third protein. Some binding calls cover weakened binding; strength is not graded here.

The target of assay [1] is T1, Calnexin, endogenous in HEK293 cells (human (endogenous in HEK293)) (UniProt P27824).
T1 sequence: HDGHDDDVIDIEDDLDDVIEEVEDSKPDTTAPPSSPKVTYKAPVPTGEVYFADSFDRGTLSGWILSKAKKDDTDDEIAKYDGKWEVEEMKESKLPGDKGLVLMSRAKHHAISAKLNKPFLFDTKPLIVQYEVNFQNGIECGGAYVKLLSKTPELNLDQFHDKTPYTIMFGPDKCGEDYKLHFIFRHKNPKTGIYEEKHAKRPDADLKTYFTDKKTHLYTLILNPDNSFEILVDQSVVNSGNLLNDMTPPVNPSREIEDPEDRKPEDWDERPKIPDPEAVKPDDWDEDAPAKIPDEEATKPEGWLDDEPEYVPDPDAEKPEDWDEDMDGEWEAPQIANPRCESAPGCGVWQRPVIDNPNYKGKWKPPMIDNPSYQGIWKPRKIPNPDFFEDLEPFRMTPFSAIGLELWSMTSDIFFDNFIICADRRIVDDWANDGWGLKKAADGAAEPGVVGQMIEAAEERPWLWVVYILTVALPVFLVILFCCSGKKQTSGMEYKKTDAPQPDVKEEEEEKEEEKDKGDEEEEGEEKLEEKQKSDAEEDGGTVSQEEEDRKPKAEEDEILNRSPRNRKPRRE
Put plainly: co-IP; HEK293 cells transiently transfected with human NOX1, NOX2, NOX4 or NOX5; IP with anti-CANX; Western blot for the NOX proteins. For orientation: In western blotting, separated proteins are transferred to a membrane and probed.

The target of assay [2] is T2, NOX4, endogenous in murine podocytes and mouse embryonic fibroblasts (mouse (endogenous in podocytes and MEFs)) (UniProt Q9JHI8).
T2 sequence: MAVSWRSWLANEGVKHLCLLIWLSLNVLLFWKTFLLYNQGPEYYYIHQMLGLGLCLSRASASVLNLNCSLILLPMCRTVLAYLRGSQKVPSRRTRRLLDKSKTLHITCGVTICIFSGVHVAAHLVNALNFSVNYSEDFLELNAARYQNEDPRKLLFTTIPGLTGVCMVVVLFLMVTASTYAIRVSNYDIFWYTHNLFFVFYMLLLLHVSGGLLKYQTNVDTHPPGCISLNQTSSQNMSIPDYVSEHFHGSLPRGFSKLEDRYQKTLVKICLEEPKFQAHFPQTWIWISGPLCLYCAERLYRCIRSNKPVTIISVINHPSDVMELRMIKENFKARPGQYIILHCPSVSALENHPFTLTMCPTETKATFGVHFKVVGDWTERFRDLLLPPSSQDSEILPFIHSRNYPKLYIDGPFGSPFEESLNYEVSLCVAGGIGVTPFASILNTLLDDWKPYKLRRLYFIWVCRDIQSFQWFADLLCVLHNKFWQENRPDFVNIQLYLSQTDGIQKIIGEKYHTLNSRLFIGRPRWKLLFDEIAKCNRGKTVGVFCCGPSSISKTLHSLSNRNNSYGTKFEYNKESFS
Briefly: proximity ligation; Duolink PLA on formaldehyde-fixed, Triton-permeabilised cells with rabbit monoclonal anti-NOX4 and anti-CANX (sc-6465) antibodies; controls were the CANX antibody blocking peptide, omission of the NOX4 antibody, and Nox4-/- or Canx-/- cells; done in NOX4-HEK293 cells, mouse podocytes and MEFs.

The target in assay [3] is T1, Calnexin, endogenous in HEK293 cells (human (endogenous in HEK293)). Briefly: co-IP; IP with anti-CANX or anti-HSPA5 antibody and Protein A/G-Sepharose from HEK293 (Ctl) and stably NOX4-overexpressing HEK293 cells lysed in Tris/HCl pH 7.5 with 1% Triton or digitonin; Western blot for NOX4.

With “NOX1 (human), transiently overexpressed in HEK293 cells (from UniProt Q9Y5S8 1-564) (enzyme)”, in assay [1], the binding entry was “no binding”.

B1: NOX2 (human), transiently overexpressed in HEK293 cells (enzyme, UniProt P04839 1-570)
chain: MGNWAVNEGLSIFVILVWLGLNVFLFVWYYRVYDIPPKFFYTRKLLGSALALARAPAACLNFNCMLILLPVCRNLLSFLRGSSACCSTRVRRQLDRNLTFHKMVAWMIALHSAIHTIAHLFNVEWCVNARVNNSDPYSVALSELGDRQNESYLNFARKRIKNPEGGLYLAVTLLAGITGVVITLCLILIITSSTKTIRRSYFEVFWYTHHLFVIFFIGLAIHGAERIVRGQTAESLAVHNITVCEQKISEWGKIKECPIPQFAGNPPMTWKWIVGPMFLYLCERLVRFWRSQQKVVITKVVTHPFKTIELQMKKKGFKMEVGQYIFVKCPKVSKLEWHPFTLTSAPEEDFFSIHIRIVGDWTEGLFNACGCDKQEFQDAWKLPKIAVDGPFGTASEDVFSYEVVMLVGAGIGVTPFASILKSVWYKYCNNATNLKLKKIYFYWLCRDTHAFEWFADLLQLLESQMQERNNAGFLSYNIYLTGWDESQANHFAVHHDEEKDVITGLKQKTLYGRPNWDNEFKTIASQHPNTRIGVFLCGPEALAETLSKQSISNSESGPRGVHFIFNKENF
Consider B1, for which the binding entry in assay [1] is “no binding”.

B2: NOX5 (human), transiently overexpressed in HEK293 cells (enzyme, UniProt Q96PH1 1-765)
chain: MNTSGDPAQTGPEGCRGTMSAEEDARWLRWVTQQFKTIAGEDGEISLQEFKAALHVKESFFAERFFALFDSDRSGTITLQELQEALTLLIHGSPMDKLKFLFQVYDIDVCARQGASAGTEWGAGAGPHWASSPLGTGSGSIDPDELRTVLQSCLRESAISLPDEKLDQLTLALFESADADGNGAITFEELRDELQRFPGVMENLTISAAHWLTAPAPRPRPRRPRQLTRAYWHNHRSQLFCLATYAGLHVLLFGLAASAHRDLGASVMVAKGCGQCLNFDCSFIAVLMLRRCLTWLRATWLAQVLPLDQNIQFHQLMGYVVVGLSLVHTVAHTVNFVLQAQAEASPFQFWELLLTTRPGIGWVHGSASPTGVALLLLLLLMFICSSSCIRRSGHFEVFYWTHLSYLLVWLLLIFHGPNFWKWLLVPGILFFLEKAIGLAVSRMAAVCIMEVNLLPSKVTHLLIKRPPFFHYRPGDYLYLNIPTIARYEWHPFTISSAPEQKDTIWLHIRSQGQWTNRLYESFKASDPLGRGSKRLSRSVTMRKSQRSSKGSEILLEKHKFCNIKCYIDGPYGTPTRRIFASEHAVLIGAGIGITPFASILQSIMYRHQKRKHTCPSCQHSWIEGVQDNMKLHKVDFIWINRDQRSFEWFVSLLTKLEMDQAEEAQYGRFLELHMYMTSALGKNDMKAIGLQMALDLLANKEKKDSITGLQTRTQPGRPDWSKVFQKVAAEKKGKVQVFFCGSPALAKVLKGHCEKFGFRFFQENF
B2: the binding entry in assay [1] is recorded as “no binding”.

B3: Calnexin, endogenous in murine podocytes and mouse embryonic fibroblasts (protein, UniProt P35564 21-591)
chain: HDGHDDDAIDIEDDLDDVIEEVEDSKSKSDASTPPSPKVTYKAPVPTGEVYFADSFDRGSLSGWILSKAKKDDTDDEIAKYDGKWEVDEMKETKLPGDKGLVLMSRAKHHAISAKLNKPFLFDTKPLIVQYEVNFQNGIECGGAYVKLLSKTAELSLDQFHDKTPYTIMFGPDKCGEDYKLHFIFRHKNPKTGVYEEKHAKRPDADLKTYFTDKKTHLYTLILNPDNSFEILVDQSVVNSGNLLNDMTPPVNPSREIEDPEDRKPEDWDERPKIADPDAVKPDDWDEDAPSKIPDEEATKPEGWLDDEPEYIPDPDAEKPEDWDEDMDGEWEAPQIANPKCESAPGCGVWQRPMIDNPNYKGKWKPPMIDNPNYQGIWKPRKIPNPDFFEDLEPFKMTPFSAIGLELWSMTSDIFFDNFIISGDRRVVDDWANDGWGLKKAADGAAEPGVVLQMLEAAEERPWLWVVYILTVALPVFLVILFCCSGKKQSNAMEYKKTDAPQPDVKDEEGKEEEKNKRDEEEEEEKLEEKQKSDAEEDGVTGSQDEEDSKPKAEEDEILNRSPRNRKPRRE
In the case of B3, the binding result in assay [2] is “binds”.

B4: NADPH oxidase 4 (human NOX4), overexpressed in HEK293 cells (enzyme, UniProt Q9NPH5 1-578)
chain: MAVSWRSWLANEGVKHLCLFIWLSMNVLLFWKTFLLYNQGPEYHYLHQMLGLGLCLSRASASVLNLNCSLILLPMCRTLLAYLRGSQKVPSRRTRRLLDKSRTFHITCGVTICIFSGVHVAAHLVNALNFSVNYSEDFVELNAARYRDEDPRKLLFTTVPGLTGVCMVVVLFLMITASTYAIRVSNYDIFWYTHNLFFVFYMLLTLHVSGGLLKYQTNLDTHPPGCISLNRTSSQNISLPEYFSEHFHEPFPEGFSKPAEFTQHKFVKICMEEPRFQANFPQTWLWISGPLCLYCAERLYRYIRSNKPVTIISVMSHPSDVMEIRMVKENFKARPGQYITLHCPSVSALENHPFTLTMCPTETKATFGVHLKIVGDWTERFRDLLLPPSSQDSEILPFIQSRNYPKLYIDGPFGSPFEESLNYEVSLCVAGGIGVTPFASILNTLLDDWKPYKLRRLYFIWVCRDIQSFRWFADLLCMLHNKFWQENRPDYVNIQLYLSQTDGIQKIIGEKYHALNSRLFIGRPRWKLLFDEIAKYNRGKTVGVFCCGPNSLSKTLHKLSNQNNSYGTRFEYNKESFS
With B4, the binding result in assay [3] and in assay [1] was “binds” each time.
